Paper PMC12820563, “FoxP3 forms a head-to-head dimer in vivo and stabilizes its multimerization on adjacent microsatellites”
Some of the results follow.

target: T1, MBP-FoxP1dN (Mus musculus, UniProt P58462 326-579); assay: PD-seq (MBP pull-down with sequencing); 20 mM Tris-HCl pH 7.5, 100 mM NaCl, 1.5 mM MgCl2, 0.4 uM protein, 0.1 uM dsDNA library, 30 min, room temperature, amylose pull-down; high values mean tight binding; settings: protein: recombinant; tags: His6-MBP; chain copies: 2; dsDNA, one strand shown
T1 sequence: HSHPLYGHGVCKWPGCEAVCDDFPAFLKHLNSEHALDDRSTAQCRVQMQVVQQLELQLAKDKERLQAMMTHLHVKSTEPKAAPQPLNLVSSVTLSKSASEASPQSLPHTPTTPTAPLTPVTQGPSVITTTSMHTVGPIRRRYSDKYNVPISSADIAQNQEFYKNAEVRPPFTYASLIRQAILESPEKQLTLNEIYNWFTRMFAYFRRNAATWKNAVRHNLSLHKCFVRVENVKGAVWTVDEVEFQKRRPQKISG
Method in brief: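 His6-MBP-tagged mouse FoxP3 or FoxP1 fragment lacking the N-terminus, expressed in E. coli, was mixed at 0.4 µM with 0.1 µM Klenow-filled double-stranded degenerate DNA library. Incubation was 30 min at room temperature in Tris pH 7.5 buffer with NaCl and MgCl2. Complexes were caught on amylose resin and washed three times; DNA was released with proteinase K, PCR-barcoded and Illumina-sequenced. Binding is reads-per-million enrichment, pull-down over input, with replicates pooled.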

Question: Which binding signal does the source give for “GATGATTGTTCTCCCAGCTGATGAATTCGCGACCTCGAGTAAACAAATTTTCCTAATCTTTCTGTTCAAGCGCCATCTAC” here?
Answer: Its binding signal is 0.815 RPM ratio (pull-down/input).

Question: “GATGATTGTTCTCCCAGCTGATGAATTACGGCTGTCGAGTAAACAAATTTTCCTAATCTTTCTGTTCAAGCGCCATCTAC” was tested. Which binding signal did it give?
Answer: The binding signal was 0.915 RPM ratio (pull-down/input).

Question: How did the binding signal turn out when “GATGATTGTTCTCCCAGCTGATGAATTGATAACTTCGAGTAAACAAATTTTCCTAATCTTTCTGTTCAAGCGCCATCTAC” was run?
Answer: The binding signal was 1.09 RPM ratio (pull-down/input).

Question: Which binding signal does the source give for “GATGATTGTTCTCCCAGCTGATGAATTAGCAAGATCGAGTAAACAAATTTTCCTAATCTTTCTGTTCAAGCGCCATCTAC” here?
Answer: Its binding signal is 0.939 RPM ratio (pull-down/input).

Question: For “GATGATTGTTCTCCCAGCTGATGAATTCTACTCATCGAGTAAACAAATTTTCCTAATCTTTCTGTTCAAGCGCCATCTAC”, which binding signal is on record?
Answer: The binding signal was 0.906 RPM ratio (pull-down/input).

Question: For “GATGATTGTTCTCCCAGCTGATGAATTTCGATTGTCGAGTAAACAAATTTTCCTAATCTTTCTGTTCAAGCGCCATCTAC”, which binding signal is on record?
Answer: Its binding signal is 1.08 RPM ratio (pull-down/input).

Question: Which binding signal does the source give for “GATGATTGTTCTCCCAGCTGATGAATTTGGCGAATCGAGTAAACAAATTTTCCTAATCTTTCTGTTCAAGCGCCATCTAC” here?
Answer: The binding signal was 0.94 RPM ratio (pull-down/input).

Question: How did the binding signal turn out when “GATGATTGTTCTCCCAGCTGATGAATTCCAAGCCTCGAGTAAACAAATTTTCCTAATCTTTCTGTTCAAGCGCCATCTAC” was run?
Answer: The binding signal was 0.772 RPM ratio (pull-down/input).

Question: How did the binding signal turn out when “GATGATTGTTCTCCCAGCTGATGAATTAATTAGGTCGAGTAAACAAATTTTCCTAATCTTTCTGTTCAAGCGCCATCTAC” was run?
Answer: Its binding signal is 0.993 RPM ratio (pull-down/input).

Question: For “GATGATTGTTCTCCCAGCTGATGAATTGTGCCACTCGAGTAAACAAATTTTCCTAATCTTTCTGTTCAAGCGCCATCTAC”, which binding signal is on record?
Answer: The binding signal was 1.09 RPM ratio (pull-down/input).

Question: “GATGATTGTTCTCCCAGCTGATGAATTGTCTATGTCGAGTAAACAAATTTTCCTAATCTTTCTGTTCAAGCGCCATCTAC” was tested. Which binding signal did it give?
Answer: The binding signal was 1.1 RPM ratio (pull-down/input).

Question: How did the binding signal turn out when “GATGATTGTTCTCCCAGCTGATGAATTGCTACCATCGAGTAAACAAATTTTCCTAATCTTTCTGTTCAAGCGCCATCTAC” was run?
Answer: Its binding signal is 1.14 RPM ratio (pull-down/input).

Question: “GATGATTGTTCTCCCAGCTGATGAATTCACAACCTCGAGTAAACAAATTTTCCTAATCTTTCTGTTCAAGCGCCATCTAC” was tested. Which binding signal did it give?
Answer: The binding signal was 0.972 RPM ratio (pull-down/input).

Question: “GATGATTGTTCTCCCAGCTGATGAATTCGATCTGTCGAGTAAACAAATTTTCCTAATCTTTCTGTTCAAGCGCCATCTAC” was tested. Which binding signal did it give?
Answer: Its binding signal is 0.74 RPM ratio (pull-down/input).

Question: “GATGATTGTTCTCCCAGCTGATGAATTTGCAACTTCGAGTAAACAAATTTTCCTAATCTTTCTGTTCAAGCGCCATCTAC” was tested. Which binding signal did it give?
Answer: The binding signal was 1.5 RPM ratio (pull-down/input).

Question: “GATGATTGTTCTCCCAGCTGATGAATTCGGGCTGTCGAGTAAACAAATTTTCCTAATCTTTCTGTTCAAGCGCCATCTAC” was tested. Which binding signal did it give?
Answer: Its binding signal is 0.742 RPM ratio (pull-down/input).

Question: How did the binding signal turn out when “GATGATTGTTCTCCCAGCTGATGAATTCTCAGGGTCGAGTAAACAAATTTTCCTAATCTTTCTGTTCAAGCGCCATCTAC” was run?
Answer: The binding signal was 0.745 RPM ratio (pull-down/input).

Question: Which binding signal does the source give for “GATGATTGTTCTCCCAGCTGATGAATTGGGTAAGTCGAGTAAACAAATTTTCCTAATCTTTCTGTTCAAGCGCCATCTAC” here?
Answer: Its binding signal is 0.902 RPM ratio (pull-down/input).

Question: With “GATGATTGTTCTCCCAGCTGATGAATTTCATAGGTCGAGTAAACAAATTTTCCTAATCTTTCTGTTCAAGCGCCATCTAC” as the sequence, how does the binding signal read?
Answer: The binding signal was 0.758 RPM ratio (pull-down/input).

Question: Which binding signal does the source give for “GATGATTGTTCTCCCAGCTGATGAATTTTAACTATCGAGTAAACAAATTTTCCTAATCTTTCTGTTCAAGCGCCATCTAC” here?
Answer: Its binding signal is 1.01 RPM ratio (pull-down/input).

Question: Which binding signal does the source give for “GATGATTGTTCTCCCAGCTGATGAATTCGAGAATTCGAGTAAACAAATTTTCCTAATCTTTCTGTTCAAGCGCCATCTAC” here?
Answer: Its binding signal is 0.871 RPM ratio (pull-down/input).

Question: How did the binding signal turn out when “GATGATTGTTCTCCCAGCTGATGAATTAGTTATGTCGAGTAAACAAATTTTCCTAATCTTTCTGTTCAAGCGCCATCTAC” was run?
Answer: The binding signal was 1.02 RPM ratio (pull-down/input).

Question: For “GATGATTGTTCTCCCAGCTGATGAATTACTCAGGTCGAGTAAACAAATTTTCCTAATCTTTCTGTTCAAGCGCCATCTAC”, which binding signal is on record?
Answer: Its binding signal is 0.891 RPM ratio (pull-down/input).

Question: For “GATGATTGTTCTCCCAGCTGATGAATTTTAATCCTCGAGTAAACAAATTTTCCTAATCTTTCTGTTCAAGCGCCATCTAC”, which binding signal is on record?
Answer: Its binding signal is 0.832 RPM ratio (pull-down/input).

Question: How did the binding signal turn out when “GATGATTGTTCTCCCAGCTGATGAATTGCTTATCTCGAGTAAACAAATTTTCCTAATCTTTCTGTTCAAGCGCCATCTAC” was run?
Answer: The binding signal was 1.5 RPM ratio (pull-down/input).

Question: How did the binding signal turn out when “GATGATTGTTCTCCCAGCTGATGAATTCACTCATTCGAGTAAACAAATTTTCCTAATCTTTCTGTTCAAGCGCCATCTAC” was run?
Answer: Its binding signal is 0.903 RPM ratio (pull-down/input).

Question: How did the binding signal turn out when “GATGATTGTTCTCCCAGCTGATGAATTCAACGTCTCGAGTAAACAAATTTTCCTAATCTTTCTGTTCAAGCGCCATCTAC” was run?
Answer: Its binding signal is 0.934 RPM ratio (pull-down/input).

Question: How did the binding signal turn out when “GATGATTGTTCTCCCAGCTGATGAATTACGGGTCTCGAGTAAACAAATTTTCCTAATCTTTCTGTTCAAGCGCCATCTAC” was run?
Answer: Its binding signal is 0.889 RPM ratio (pull-down/input).

Question: For “GATGATTGTTCTCCCAGCTGATGAATTGAATACATCGAGTAAACAAATTTTCCTAATCTTTCTGTTCAAGCGCCATCTAC”, which binding signal is on record?
Answer: The binding signal was 1.14 RPM ratio (pull-down/input).

Question: Which binding signal does the source give for “GATGATTGTTCTCCCAGCTGATGAATTATTGTCATCGAGTAAACAAATTTTCCTAATCTTTCTGTTCAAGCGCCATCTAC” here?
Answer: The binding signal was 1.86 RPM ratio (pull-down/input).

Question: For “GATGATTGTTCTCCCAGCTGATGAATTTAAGCCATCGAGTAAACAAATTTTCCTAATCTTTCTGTTCAAGCGCCATCTAC”, which binding signal is on record?
Answer: The binding signal was 0.944 RPM ratio (pull-down/input).
